Reference: PMC7316778 (Nature Communications, 2020)

Tests used:
[1] = biological target: T1, kinase targets in FES^S700C HL-60 neutrophils (Homo sapiens, UniProt P40925); format: cell-based; settings: Figure 7c; protein MDHC_HUMAN; 100 nM; listed as WEL028
T1 sequence (P40925 1-334): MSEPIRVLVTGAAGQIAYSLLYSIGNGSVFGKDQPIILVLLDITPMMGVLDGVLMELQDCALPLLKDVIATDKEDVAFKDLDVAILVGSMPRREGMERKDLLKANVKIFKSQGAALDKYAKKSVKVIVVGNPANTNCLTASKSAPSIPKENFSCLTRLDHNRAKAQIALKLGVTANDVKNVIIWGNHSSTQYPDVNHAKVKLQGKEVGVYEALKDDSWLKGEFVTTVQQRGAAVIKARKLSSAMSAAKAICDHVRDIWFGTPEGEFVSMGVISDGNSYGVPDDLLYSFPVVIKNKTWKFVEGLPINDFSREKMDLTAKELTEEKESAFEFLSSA

[2] = biological target: T2, kinase targets in FES^S700C HL-60 neutrophils (Homo sapiens, UniProt P57088); format: cell-based; settings: Figure 7c; protein TMM33_HUMAN; 100 nM; listed as WEL028
T2 sequence (P57088 1-247): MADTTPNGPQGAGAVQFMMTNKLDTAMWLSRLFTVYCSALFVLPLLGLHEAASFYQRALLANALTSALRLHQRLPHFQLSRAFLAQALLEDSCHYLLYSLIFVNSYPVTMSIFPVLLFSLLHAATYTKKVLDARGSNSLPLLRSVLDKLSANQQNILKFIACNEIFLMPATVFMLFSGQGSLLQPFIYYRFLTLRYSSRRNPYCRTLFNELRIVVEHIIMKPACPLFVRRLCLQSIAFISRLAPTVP

[3] = biological target: T3, kinase targets in FES^S700C HL-60 neutrophils (Homo sapiens, UniProt Q04446); format: cell-based; settings: protein GLGB_HUMAN; WEL028-treated replicates (c6-c9) vs vehicle replicates (c2-c5, mean 1); Fig. 7 source data
T3 sequence (Q04446 1-702): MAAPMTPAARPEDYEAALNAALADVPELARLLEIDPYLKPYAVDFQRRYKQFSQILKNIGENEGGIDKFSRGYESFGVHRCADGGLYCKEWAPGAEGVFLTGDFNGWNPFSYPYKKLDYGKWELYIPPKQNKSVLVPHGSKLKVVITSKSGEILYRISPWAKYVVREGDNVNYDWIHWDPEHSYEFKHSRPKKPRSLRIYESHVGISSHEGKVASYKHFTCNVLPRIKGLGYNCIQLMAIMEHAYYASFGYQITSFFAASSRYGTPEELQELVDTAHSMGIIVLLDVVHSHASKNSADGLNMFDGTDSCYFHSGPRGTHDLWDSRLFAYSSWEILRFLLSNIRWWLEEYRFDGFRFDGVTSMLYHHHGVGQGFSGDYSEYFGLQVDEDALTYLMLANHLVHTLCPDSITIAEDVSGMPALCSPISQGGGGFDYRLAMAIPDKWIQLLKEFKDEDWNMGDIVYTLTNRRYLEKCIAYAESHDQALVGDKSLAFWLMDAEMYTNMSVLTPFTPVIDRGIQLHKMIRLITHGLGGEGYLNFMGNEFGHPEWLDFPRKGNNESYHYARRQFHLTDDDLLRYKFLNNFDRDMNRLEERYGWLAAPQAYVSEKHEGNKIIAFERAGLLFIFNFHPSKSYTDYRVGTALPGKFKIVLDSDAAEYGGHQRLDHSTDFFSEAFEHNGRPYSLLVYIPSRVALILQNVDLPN

[4] = tested on: SYK Y352, HS1 Y397 and PLCγ2 Y1217 phosphorylation in FES^S700C HL-60 neutrophils; experiment: Neutrophil stimulation and phosphoprotein analysis; format: cell-based, human; settings: WEL028 100 nM, 1 h; E. coli MOI 30, 2 min
Method: HL-60 neutrophils were infected as described above, but in 1.5 mL tubes (5 × 10^6 cells per sample, in 1 mL growth medium without antibiotics, supplemented with FcR blocking reagent (1:25)). After indicated infection times, suspensions were immediately centrifuged (2000g, 2 min, 4 °C). Supernatant was completely aspirated and cells were washed (1 mL cold PBS, 2000g, 2 min, 4 °C). Pellets were thoroughly resuspended in 1× Laemmli sample buffer (75 µL), followed by incubation at 95 °C (15 min, 1400 rpm) and brief sonication to reduce sample viscosity. Samples were stored at −20 °C or immediately resolved by SDS-PAGE.

[5] = biological target: kinase targets in WT HL-60 neutrophils (Homo sapiens, UniProt P0CG39); settings: protein POTEJ_HUMAN; 100 nM; q-value 0.001
[6] = biological target: kinase targets in WT HL-60 neutrophils (Homo sapiens, UniProt P35609); settings: protein ACTN2_HUMAN; 100 nM; q-value 0.740; listed as WEL028
[7] = tested on: kinase targets in WT HL-60 cells; settings: Figure 6g

With `C#CCOc1ccc(Nc2ncc(Cl)c(Nc3ccccc3NC(=O)C=C)n2)c(OC)c1` [Compound 6] the “Fold enrichment over vehicle” value [1] was 1.063 and 1.361 and 1.094, the “Fold enrichment over vehicle” value [2] was 1.041 and 0.796 and 1.073 and the “GLGB_HUMAN, abundance normalised to mean of vehicle replicates (replicate values)” value [3] was 1.046 (2×) and 1.279 and 1.081. The “Phosphorylation of SYK, HS1 and PLCγ2” value [4] was “completely blocked the phosphorylation”, the “Fold enrichment over vehicle” value [5] was 0.030 and the “Fold enrichment over vehicle” value [6] was 1.184 and 1.221 and 1.084. For the same compound, the “Fold enrichment over vehicle” value ([7]; kinase AAK1, listed as WEL028) was 3.3495 and 3.6735 and 3.6065, the “Fold enrichment over vehicle” value ([7]; kinase ADK, listed as WEL028) was 39.5823 and 41.6357 and 46.5527 and the “Fold enrichment over vehicle” value ([7]; kinase ADPGK, listed as WEL028) was 12.3077 and 12.2613 and 11.9417. For the same compound, the “Fold enrichment over vehicle” value ([7]; kinase FES, listed as WEL028) was 22.028 and 25.2257 and 24.928, the “Fold enrichment over vehicle” value ([7]; kinase GAK, listed as WEL028) was 3.33 and 3.818 and 4.1575 and the “Fold enrichment over vehicle” value ([7]; kinase MAP2K1, listed as WEL028) was 13.264 and 14.0967 and 13.9564. The “Fold enrichment over vehicle” value ([7]; kinase MAP2K2, listed as WEL028) was 80.3522 and 87.7266 and 86.7656, the “Fold enrichment over vehicle” value ([7]; kinase MAP2K3, listed as WEL028) was 5.469 and 5.758 and 4.817 and the “Fold enrichment over vehicle” value ([7]; kinase MAP2K5, listed as WEL028) was 5.504 and 5.554 and 5.974. The “Fold enrichment over vehicle” value ([7]; kinase MAP2K7, listed as WEL028) was 3.408 and 3.829 and 3.445, the “Fold enrichment over vehicle” value ([7]; kinase MAP3K7, listed as WEL028) was 2.976 and 1.828 and 3.058 and the “Fold enrichment over vehicle” value ([7]; kinase MAPK1, listed as WEL028) was 95.4964 and 98.9035 and 99.2992. The “Fold enrichment over vehicle” value ([7]; kinase MAPK3, listed as WEL028) was 3.4335 and 3.699 and 3.773, the “Fold enrichment over vehicle” value ([7]; kinase MAPK4, listed as WEL028) was 3.385 and 3.931 and 3.135 and the “Fold enrichment over vehicle” value ([7]; kinase MAPKAPK5) was 0. The “Fold enrichment over vehicle” value ([7]; kinase MLKL, listed as WEL028) was 4.914 and 5.604 and 4.99, the “Fold enrichment over vehicle” value ([7]; kinase NME1, listed as WEL028) was 2.1032 and 2.165 and 2.026 and the “Fold enrichment over vehicle” value ([7]; kinase PFKL, listed as WEL028) was 52.2098 and 54.8514 and 51.9201. The “Fold enrichment over vehicle” value ([7]; kinase PFKP, listed as WEL028) was 20.548 and 20.448 and 22.286, the “Fold enrichment over vehicle” value ([7]; kinase PGK1, listed as WEL028) was 4.232 and 5.12 and 4.346 and the “Fold enrichment over vehicle” value ([7]; kinase PKM, listed as WEL028) was 3.385 and 2.872 and 3.819. The “Fold enrichment over vehicle” value ([7]; kinase RPS6KA1, listed as WEL028) was 8.736 and 6.8169 and 8.606 and the “Fold enrichment over vehicle” value ([7]; kinase RPS6KA3, listed as WEL028) was 2.396 and 3.236 and 2.894.

Several values for one entry are separate records, joined by “and”; a condition that tells them apart may be missing. Equal values may be shown once. Read-outs that look alike come from different tables or passages of the source.
